Reference: article PMC5234120, “Age-related macular degeneration associated polymorphism rs10490924 in ARMS2 results in deficiency of a complement activator” (Journal of Neuroinflammation, 2017)

Biological target: T1, recombinant ARMS2 (age-related maculopathy susceptibility 2) (human, UniProt P0C7Q2 1-107)
T1 sequence (looked up): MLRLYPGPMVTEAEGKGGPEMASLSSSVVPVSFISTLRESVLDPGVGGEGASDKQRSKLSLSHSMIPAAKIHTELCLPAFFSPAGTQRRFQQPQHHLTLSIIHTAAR
Assay: cell-based or functional assay

B1: properdin (natural protein, human, UniProt P27918 28-469, looked up)
chain: DPVLCFTQYEESSGKCKGLLGGGVSVEDCCLNTAFAYQKRSGGLCQPCRSPRWSLWSTWAPCSVTCSEGSQLRYRRCVGWNGQCSGKVAPGTLEWQLQACEDQQCCPEMGGWSGWGPWEPCSVTCSKGTRTRRRACNHPAPKCGGHCPGQAQESEACDTQQVCPTHGAWATWGPWTPCSASCHGGPHEPKETRSRKCSAPEPSQKPPGKPCPGLAYEQRRCTGLPPCPVAGGWGPWGPVSPCPVTCGLGQTMEQRTCNHPVPQHGGPFCAGDATRTHICNTAVPCPVDGEWDSWGEWSPCIRRNMKSISCQEIPGQQSRGRTCRGRKFDGHRCAGQQQDIRHCYSIQHCPLKGSWSEWSTWGLCMPPCGPNPTRARQRLCTPLLPKYPPTVSMVEGQGEKNVTFWGRPLPRCEELQGQKLVVEEKRPCLHVPACKDPEEEEL
C3b deposition on ARMS2 (500 nM) coated CHO-K1 cells in 20% NHS over 45 min, flow cytometry, compared to cells coated with HSA: 3 fold
